Measurements as given in a collection of fitness landscapes (doi:10.1016/j.celrep.2020.107928).
Over roughly 81,000 sequences, “one-hybrid fitness for binding parS DNA” has its median near -0.17; the highest 2% begin near 0.51. This is one part of the list.

B1: Caulobacter ParB omega fusion; a variant is named by its letters at X, in order, B8GW30 (parent)
chain: MESVVVGEPGMSEGRRGLGRGLSALLGEVDAAPAQAPGEQLGGSREAPIEILQRNPDQPRRTFREEDLEDLSNSIREKGVLQPILVRPSPDTAGEYQIVAGERAWRAAQRAGLKTVPIMVRELDDLAVLEIGIIENVQRADLNVLEEALSYKVLMEKFERTQENIAQTIGKSXSHVANXMRLLXLPDEVQSYLVSGELTAXHARAIAAAADPVALAKQIIEGGLSVRETEALARKAPNLSAGKSKGGRPPRVKDTDTQALESDLSSVLGLDVSIDHRGSTGTLTITYATLEQLDDLCNRLTRGI

Variants of: B1
Assay: one-hybrid fitness for binding parS DNA (scaled: cognate 1, non-cognate 0); higher = stronger binding
Conditions: with parS DNA site
Method in brief: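 Selection: bacterial one-hybrid in E. coli USO, HIS3 reporter with the site 19 bp from the promoter, 48 hours at 37°C on M9-minus-histidine plus 0.1 mM IPTG and 5 mM 3-AT. Libraries were Caulobacter ParB with four randomised specificity codons, sequenced on Illumina before and after selection. Fitness is the rescaled log change in variant-to-wild-type read ratio, anchored to the cognate and non-cognate sites.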

Row | Variant | one-hybrid fitness for binding parS DNA
1 | YPDT | ≤ 0.2
2 | KTWD | ≤ 0.2
3 | KAGM | ≤ 0.2
4 | VQDV | ≤ 0.2
5 | DFFV | ≤ 0.2
6 | ADRS | ≤ 0.2
7 | LVYG | ≤ 0.2
8 | STTP | ≤ 0.2
9 | VYRT | ≤ 0.2
10 | VHFM | ≤ 0.2
11 | CYNK | ≤ 0.2
12 | LGQN | ≤ 0.2
13 | CLSG | ≤ 0.2
14 | FGVN | ≤ 0.2
15 | TAHW | ≤ 0.2
16 | MMNR | ≤ 0.2
17 | QKPK | ≤ 0.2
18 | GLAY | ≤ 0.2
19 | PWNP | ≤ 0.2
20 | CQHV | ≤ 0.2
21 | FRSK | ≤ 0.2
22 | QCQD | ≤ 0.2
23 | SGER | ≤ 0.2
24 | YKSW | ≤ 0.2
25 | EALC | ≤ 0.2

Row | Variant | one-hybrid fitness for binding parS DNA
26 | QSRE | ≤ 0.2
27 | DKTC | ≤ 0.2
28 | HGTW | ≤ 0.2
29 | SSHT | ≤ 0.2
30 | NKCV | ≤ 0.2
31 | RCGQ | ≤ 0.2
32 | YSFV | ≤ 0.2
33 | SPAY | ≤ 0.2
34 | NIVT | ≤ 0.2
35 | NSSR | ≤ 0.2
36 | NHMC | ≤ 0.2
37 | VRSV | ≤ 0.2
38 | HHYT | ≤ 0.2
39 | RKRK | ≤ 0.2
40 | GGNR | ≤ 0.2
41 | NGCG | ≤ 0.2
42 | RMMH | ≤ 0.2
43 | RWQA | 0.404
44 | CTTD | ≤ 0.2
45 | TEHA | ≤ 0.2
46 | VVSI | ≤ 0.2
47 | YGNS | ≤ 0.2
48 | ARLA | ≤ 0.2
49 | QKLA | ≤ 0.2
50 | YRAR | ≤ 0.2

Row | Variant | one-hybrid fitness for binding parS DNA
51 | RFHD | ≤ 0.2
52 | SPKL | ≤ 0.2
53 | VQRS | ≤ 0.2
54 | IRNH | ≤ 0.2
55 | YVPF | ≤ 0.2
56 | QNGS | ≤ 0.2
57 | QSKV | ≤ 0.2
58 | YDTE | ≤ 0.2
59 | QVWD | ≤ 0.2
60 | WLQA | ≤ 0.2
61 | HPRV | ≤ 0.2
62 | VTAC | ≤ 0.2
63 | AGAD | ≤ 0.2
64 | QNSD | ≤ 0.2
65 | RTKI | ≤ 0.2
66 | HRDK | ≤ 0.2
67 | ETAG | ≤ 0.2
68 | DAPW | ≤ 0.2
69 | RVIW | ≤ 0.2
70 | PKCR | ≤ 0.2
71 | RFSE | ≤ 0.2
72 | IWPS | ≤ 0.2
73 | LRHC | ≤ 0.2
74 | VGSE | ≤ 0.2
75 | IAHS | ≤ 0.2

Row | Variant | one-hybrid fitness for binding parS DNA
76 | DANL | ≤ 0.2
77 | HLRW | ≤ 0.2
78 | MLGY | ≤ 0.2
79 | EDCE | ≤ 0.2
80 | THSL | ≤ 0.2
81 | LEGR | ≤ 0.2
82 | DATH | ≤ 0.2
83 | GLPA | ≤ 0.2
84 | RPLH | ≤ 0.2
85 | ARNE | ≤ 0.2
86 | KHRY | ≤ 0.2
87 | ARWY | ≤ 0.2
88 | KRRW | ≤ 0.2
89 | RADY | 0.389
90 | EDRM | ≤ 0.2
91 | WSLP | ≤ 0.2
92 | AGDR | ≤ 0.2
93 | RRIV | ≤ 0.2
94 | YDGP | ≤ 0.2
95 | PKIR | ≤ 0.2
96 | DPRF | ≤ 0.2
97 | AWHI | ≤ 0.2
98 | QTIW | ≤ 0.2
99 | RTEF | 0.202
100 | EHKG | ≤ 0.2

Row | Variant | one-hybrid fitness for binding parS DNA
101 | QECS | ≤ 0.2
102 | SFYN | ≤ 0.2
103 | LQKY | ≤ 0.2
104 | QQGG | ≤ 0.2
105 | EYTM | ≤ 0.2
106 | KVSY | ≤ 0.2
107 | LFGG | ≤ 0.2
108 | NCWR | ≤ 0.2
109 | WAHS | ≤ 0.2
110 | MGEG | ≤ 0.2
111 | NGRT | ≤ 0.2
112 | IWME | ≤ 0.2
113 | DTMP | ≤ 0.2
114 | WHAD | 0.215
115 | KRTC | ≤ 0.2
116 | PYID | ≤ 0.2
117 | TTWS | ≤ 0.2
118 | QKTV | ≤ 0.2
119 | WMYR | ≤ 0.2
120 | FFTR | ≤ 0.2
121 | RHCY | 0.371
122 | CLRC | ≤ 0.2
123 | HMQA | ≤ 0.2
124 | YSGE | ≤ 0.2
125 | AERR | ≤ 0.2

Row | Variant | one-hybrid fitness for binding parS DNA
126 | TFSS | ≤ 0.2
127 | LSLS | ≤ 0.2
128 | PYYS | ≤ 0.2
129 | RHCR | ≤ 0.2
130 | QECT | ≤ 0.2
131 | RCYS | 1
132 | QQQH | ≤ 0.2
133 | VKWG | ≤ 0.2
134 | STDL | ≤ 0.2
135 | PFQA | ≤ 0.2
136 | QYRG | ≤ 0.2
137 | RRFF | ≤ 0.2
138 | NWGG | ≤ 0.2
139 | HKLG | ≤ 0.2
140 | AHDM | 0.24
141 | DFQG | ≤ 0.2
142 | RSCK | ≤ 0.2
143 | VVNC | ≤ 0.2
144 | NYRS | ≤ 0.2
145 | ARSF | ≤ 0.2
146 | KPSY | ≤ 0.2
147 | YCRR | ≤ 0.2
148 | KLNS | ≤ 0.2
149 | DSFS | ≤ 0.2
150 | DWLV | ≤ 0.2

Row | Variant | one-hybrid fitness for binding parS DNA
151 | QAML | ≤ 0.2
152 | KNAV | ≤ 0.2
153 | NMGN | ≤ 0.2
154 | AKAM | ≤ 0.2
155 | GRMM | ≤ 0.2
156 | AKMC | ≤ 0.2
157 | GLPG | ≤ 0.2
158 | QCPI | ≤ 0.2
159 | NCKT | ≤ 0.2
160 | PEAR | ≤ 0.2
161 | RLWC | 0.952
162 | HPPL | ≤ 0.2
163 | CHAC | ≤ 0.2
164 | TMKD | ≤ 0.2
165 | VTSV | ≤ 0.2
166 | KPMT | ≤ 0.2
167 | HPPC | ≤ 0.2
168 | HLAP | ≤ 0.2
169 | AIYH | ≤ 0.2
170 | QLTW | ≤ 0.2
171 | STYN | ≤ 0.2
172 | SKWS | ≤ 0.2
173 | CRVK | ≤ 0.2
174 | SNTY | ≤ 0.2
175 | GRTT | ≤ 0.2

Row | Variant | one-hybrid fitness for binding parS DNA
176 | TDHM | ≤ 0.2
177 | NWIV | 0.206
178 | RDKW | ≤ 0.2
179 | HPNR | ≤ 0.2
180 | QMNV | ≤ 0.2
181 | VTKT | ≤ 0.2
182 | APRA | ≤ 0.2
183 | SSAY | ≤ 0.2
184 | RYLV | ≤ 0.2
185 | KMHM | ≤ 0.2
186 | RLSV | ≤ 0.2
187 | SCLV | ≤ 0.2
188 | RTMC | 0.982
189 | ACCT | ≤ 0.2
190 | VLLM | ≤ 0.2
191 | MILT | ≤ 0.2
192 | FPGS | ≤ 0.2
193 | RGNM | ≤ 0.2
194 | RHPA | ≤ 0.2
195 | AQYR | ≤ 0.2
